# Experimental data from PubChem BioAssay AID1030 (National Center for Advancing Translational Sciences (NCATS), 2008).
# Hit rate of the full screen: of about 220,000 compounds, about 16,000 (7.3%) were called active. Inconclusive means that the source gave no clear call. Such entries were picked first, then a sample of the others. Calls come from the whole dose curve; as a rule, active = well fitted inhibition curve with a large enough effect (not every such curve was filed as active); inconclusive = small, poorly fitted or top-dose-only effect, or another doubt; inactive = no such curve, though single readings can be large or run the other way. Potencies of inconclusive entries are left out as doubtful fits.
# Molecular target: Aldehyde dehydrogenase 1A1 (Homo sapiens) (UniProt P00352)
# UniProt P00352, sequence (P00352 whole entry, looked up): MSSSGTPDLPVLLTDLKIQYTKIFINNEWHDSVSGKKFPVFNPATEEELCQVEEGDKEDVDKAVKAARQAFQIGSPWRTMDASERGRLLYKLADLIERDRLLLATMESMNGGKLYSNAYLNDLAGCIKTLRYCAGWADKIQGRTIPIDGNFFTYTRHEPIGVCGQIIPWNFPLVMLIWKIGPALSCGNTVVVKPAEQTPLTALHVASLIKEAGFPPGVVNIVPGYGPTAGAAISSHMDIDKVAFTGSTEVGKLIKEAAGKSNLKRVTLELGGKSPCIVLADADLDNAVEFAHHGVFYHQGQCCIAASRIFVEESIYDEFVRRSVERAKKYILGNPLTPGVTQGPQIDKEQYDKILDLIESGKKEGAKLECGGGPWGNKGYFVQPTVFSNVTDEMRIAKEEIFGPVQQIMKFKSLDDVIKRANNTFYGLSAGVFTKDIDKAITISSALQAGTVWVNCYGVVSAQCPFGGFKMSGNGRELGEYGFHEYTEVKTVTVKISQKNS
# Assay: qHTS Assay for Inhibitors of Aldehyde Dehydrogenase 1 (ALDH1A1)
# Conditions: Purified ALDH1A1, NADH fluorescence, propionaldehyde substrate; series mostly up to 75.3 µM
# Potency is the fitted concentration of half-maximal effect; tags give direction and shape of the fitted curve.
row,SMILES,Potency
1,NC(N)=NN=C1CCCCCCCCCCC1,inactive
2,Cc1nn(CCC(=O)NNC(=S)Nc2ccccc2)c(C)c1Br,"inconclusive [inhibitor, single point]"
3,Cc1cc(Cl)cc(Cl)c1CNc1c([N+](=O)[O-])c(=O)oc2ccccc12,active: 10 µM
4,Cc1ccc2c(c1)Oc1ccc(NC(=O)CCl)cc1C(=O)N2,active: 11.2 µM
5,O=C(Nc1ccc(-c2nc3ccccc3[nH]2)cc1)c1ccc2c(c1)OCO2,inactive
6,COc1cc(/C=C2/NC(=O)N(Cc3ccccc3F)C2=O)ccc1Oc1ccc([N+](=O)[O-])cn1,active: 0.224 µM
7,CCOC(=O)Cn1c(=N)n(CCOc2cccc(C)c2)c2ccccc21,inactive
8,Cc1cnc(CNc2ncnc3ccc(-c4ccc(C(=O)N(C)C)cc4)cc23)cn1,"inconclusive [inhibitor, single point]"
9,O=C(NCCc1ccc(Cl)cc1)C1CCN(C(=O)c2sccc2-n2cccc2)CC1,active: 0.501 µM
10,CC1(C)CC(=O)C(=Cc2cn(-c3ccccc3)nc2-c2ccc(Cl)cc2)C(=O)C1,"inconclusive [inhibitor, single point]"
11,Cc1cc2nc(-c3ccc(SCc4ccc(C(=O)O)cc4)nc3)[nH]c2cc1C,"inconclusive [inhibitor, partial curve]"
12,CC1CN(C(=S)SCC(=O)c2ccc(Cl)cc2)CC(C)O1 (configuration not stated),"inconclusive [inhibitor, single point]"
13,O=C(Nc1nc(COc2ccccc2)cs1)c1ccccc1F,inactive
14,COC(=O)c1ccc(NC(=O)CN2C(=O)CNC2=O)cc1,active: 17.8 µM
15,O=C(COc1cccc2c1CCN(Cc1ccccc1)C2=O)NCc1ccco1,active: 20 µM
16,CC(=O)c1cccc(CN2CCC(CO)(Cc3ccccc3)CC2)c1,inactive
17,CC1=C(C(=O)N2CCOCC2)C(c2cc(C)cs2)NC(=O)N1 (configuration not stated),"inconclusive [inhibitor, single point]"
18,CC(C)Cn1cc(C(=O)NCC2CCCO2)c2c3ccccc3n(C)c2c1=O (configuration not stated),"inconclusive [inhibitor, partial curve]"
19,COc1ccc(Br)cc1C(=O)Nc1ccc(Cc2ccncc2)cc1,inactive
20,Cc1cc(C)c(NC(=O)/C=C\C(=O)O)c(Cl)c1,"inconclusive [inhibitor, single point]"
21,O=C(CCc1ccccc1)NC(c1cccs1)c1cc(Cl)c2cccnc2c1O (configuration not stated),"inconclusive [inhibitor, single point]"
22,CCOC(=O)CC(NC(=O)CCc1c(C)nc2nc(C)nn2c1C)c1ccc(OC(C)C)cc1 (configuration not stated),"inconclusive [inhibitor, single point]"
23,CSC(=NC#N)N1CCN(C(=NC#N)SC)CC1,"inconclusive [inhibitor, partial curve]"
24,Cn1c(=O)c2c(nc(NCc3ccc4c(c3)OCO4)n2Cc2ccc(F)cc2)n(C)c1=O,"inconclusive [inhibitor, single point]"

row,SMILES,Potency
1,Nc1nc(C2CC2)c(Sc2sc(N)nc2C2CC2)s1,inactive
2,CC(=NCCN1CCN(C(C)=C2C(=O)c3ccccc3C2=O)CC1)C1=C(O)CC(C)(C)CC1=O,"inconclusive [inhibitor, single point]"
3,CNC(=O)CN(C1CCCCC1)S(=O)(=O)c1ccc(OC)c(Cl)c1,inactive
4,CCOC(=O)c1c(NC(=O)c2ccc(N3C(=O)C4C5C=CC(C5)C4C3=O)cc2)sc2c1CCCC2 (configuration not stated),"inconclusive [inhibitor, partial curve]"
5,CCN1CCN(c2nc(SC)nc3sc4c(c23)CC(C)(C)OC4)CC1,"inconclusive [inhibitor, single point]"
6,Cc1ccc(C2CC(=O)Oc3cc4c(cc32)OCO4)cc1 (configuration not stated),inactive
7,CCN1CCN(C(c2ccc(F)cc2)c2nnnn2Cc2ccc3c(c2)OCO3)CC1 (configuration not stated),"inconclusive [inhibitor, partial curve]"
8,Cc1cc(C(F)F)n2ncc(C(=O)N3CCc4ccccc4C3)c2n1,"inconclusive [inhibitor, single point]"
9,O=C(COc1ccc(Cl)cc1Cl)Nn1c(=S)[nH]c2ncccc2c1=O,inactive
10,COC(=O)C(=O)/C=C(\O)c1ccc(C)cc1,"inconclusive [inhibitor, partial curve]"
11,CN(C)c1ccc(/C=N/N2C(=S)SC(C)(C)C2N(O)C(=O)Nc2ccc([N+](=O)[O-])cc2)cc1 (configuration not stated),active: 12.6 µM
12,CCOC(=O)c1sc(=S)n(C)c1NC(=O)c1ccccc1C,active: 10 µM
13,CCOC(=O)C1=C(N)N(c2ccc(C)cc2)C2=C(C(=O)CCC2)C1c1cccs1 (configuration not stated),"inconclusive [inhibitor, single point]"
14,Nc1nccc(/C=C/c2c(F)cccc2Cl)n1,"inconclusive [inhibitor, single point]"
15,CC(=O)c1c(C)nc(-c2cccc([N+](=O)[O-])c2)n1O,"inconclusive [inhibitor, single point]"
16,Cc1cccc(OCC(=O)Nc2cccc(C(=O)Nc3ccccc3C(=O)O)c2)c1,active: 5.62 µM
17,Cc1ccc(N2C(=O)N(CC(=O)N(C)Cc3ccccc3)C(=O)C2C)cc1 (configuration not stated),"inconclusive [inhibitor, single point]"
18,COC(=O)CCC/C=C1/SCC(NC(=O)c2ccccc2)C1=O (configuration not stated),active: 7.94 µM
19,COc1ccc(C(=O)C2CCCN(C(=O)c3cc(C(C)C)no3)C2)cc1F (configuration not stated),active: 1.58 µM
20,O=c1c(-c2ccccc2)c(O)c2cccc3c2n1CCC3,inactive
21,Clc1ccc(CON/C=N/c2ncnc3sccc23)c(Cl)c1,inactive
22,O=C(Nc1ccc2c(c1)OCO2)c1cc2n(n1)C(C(F)(F)F)CC(c1ccccc1)N2 (configuration not stated),inactive
23,C=C(C)CSc1nc2c(cc1C#N)CCC2,"inconclusive [inhibitor, single point]"
24,COc1ccc(-c2csc(-c3cccs3)n2)cc1OC,"inconclusive [inhibitor, single point]"

row,SMILES,Potency
1,CCN1CCN(Cc2cccc(Oc3ccc(Cl)cc3)c2)CC1,"inconclusive [inhibitor, single point]"
2,O=C(Nc1ccc(F)cc1)C(NC1CCCCC1)c1ccccc1 (configuration not stated),"inconclusive [inhibitor, partial curve]"
3,Cc1[nH]n(-c2ccccc2)c(=O)c1/C=N/Nc1nncc(-c2ccccc2)n1,"inconclusive [inhibitor, single point]"
4,CN1CCC(=NNc2ncnc3sc4c(c23)CCCC4)CC1,"inconclusive [inhibitor, single point]"
5,CCn1c(COc2cccc3cccnc23)nnc1SCC(=O)OC,"inconclusive [inhibitor, single point]"
6,O=C(Cc1ccc(F)cc1)N1CCN=C1SCc1cccc([N+](=O)[O-])c1,inactive
7,O=C1OCCN1CCNCc1cn(-c2ccc(F)cc2)nc1-c1ccccc1Cl,"inconclusive [inhibitor, partial curve]"
8,CCOC(=O)Cc1c(C)nc2c(-c3cccc(Br)c3)c[nH]n2c1=O,"inconclusive [inhibitor, single point]"
9,COCCCN1C(=O)C(O)=C(C(=O)c2ccco2)C1c1ccccc1 (configuration not stated),active: 28.2 µM
10,CCOC(=O)c1sc2c(c1C)C(c1cccs1)C1=C(CCCC1=O)N2 (configuration not stated),"inconclusive [inhibitor, partial curve]"
11,COc1ccc(CNC(=O)Cn2cnc3c(=O)n(C)c(=O)n(C)c32)cc1,inactive
12,CCN(Cc1ccccc1)C(c1cc2ccc(C)cc2[nH]c1=O)c1nnnn1CCOC (configuration not stated),"inconclusive [inhibitor, single point]"
13,CC(C)CNC(=O)CSc1nc2scc(-c3ccccc3)c2c(=O)[nH]1,"inconclusive [inhibitor, single point]"
14,CC1(OC(=O)C2CCCC2)C(=O)C=C2C=C(c3ccsc3)N(Cc3ccc4c(c3)OCO4)C=C2C1=O (configuration not stated),"inconclusive [inhibitor, partial curve]"
15,Cc1ccc(S(=O)(=O)N2CCOCC2)cc1NC(=O)CSc1ccccn1,"inconclusive [inhibitor, single point]"
16,COc1ccc(NC(=O)Cn2c(-c3ccccc3)cn(-c3ccc(C)cc3)c2=O)cc1,"inconclusive [inhibitor, partial curve]"
17,CCCCOC(=O)c1ccc(NC(=O)C(CCS(C)(=O)=O)NC(C)=O)cc1 (configuration not stated),"inconclusive [inhibitor, single point]"
18,O=C(CN1CCN(Cc2ccccc2)CC1)c1c[nH]c2ccccc12,active: 25.1 µM
19,CCCN(CC1CC1)C(=O)COC(=O)c1ccc2c(c1)C(=O)N(c1ccc(OCC)cc1)C2=O,"inconclusive [inhibitor, single point]"
20,S=C(NCCC1=CCCCC1)Nc1ccccc1,"inconclusive [inhibitor, partial curve]"
21,Cc1ccc(/C=C/C(=O)Nc2ncc(C)s2)o1,"inconclusive [inhibitor, single point]"
22,CCc1ccc(NC(=O)C(CC)Sc2nc3cc4c(cc3c(=O)n2Cc2ccco2)OCO4)cc1 (configuration not stated),active: 0.398 µM
23,CCCCNS(=O)(=O)c1ccc2nc(SCC(=O)Nc3ccccc3Cl)[nH]c2c1,"inconclusive [inhibitor, single point]"
24,Cc1cc(C)c2nc(NC(=O)c3cc(C)on3)sc2c1,"inconclusive [inhibitor, partial curve]"
